Measured values as given in PubChem BioAssay AID1963576 (National Center for Advancing Translational Sciences (NCATS), 2024).
The whole screen tested about 46,000 compounds, of which about 60 (0.1%) were called active. About 3% were inconclusive and are not listed. Calls follow the shape of the dose curve; as a rule, active = well fitted inhibition curve with a large enough effect; inconclusive = small, poorly fitted or top-dose-only effect; inactive = no such curve, though single readings can be large or run the other way. This is one part of the list.

assay: Primary qHTS assay for Inhibitors of ovarian cancer metastasis using an organotypic tumor microenvironment (TME) model.; also: nearly all actives have a fitted effect of over 65% in size;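 as to activity change, negative = inhibition: plate controls were DMSO wells for no effect and tomatine positive control wells for full effect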; details: SKOV3ip1-GFP adhesion/invasion on 3D omental model, fluorescence; series mostly up to 45.8 µM; activity change, negative = inhibition: at the top concentration
Summary of the method: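 Primary human omental fibroblast/mesothelial 3D culture pre-formed 48 h. SKOV3ip1-GFP cells added with compounds (0.36-46 umol/L), incubated 2 h RT/16 h 37 C, fixed; GFP cells quantified at 488/509 nm.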

outcome, inactive:
Cc1cccc(NC(=O)CCNS(=O)(=O)c2ccc3c(c2)CCN3C(=O)C2CC2)c1
COC(=O)c1c(C)oc2ccc(N(C(=O)c3ccncc3)S(=O)(=O)c3cc(C)ccc3C)cc12
COc1ccc(-c2nn(-c3ccc(C)cc3)c3c2cnc2ccc(C)cc23)cc1OC
CCCN1CCN(CCCNC(=O)C(CC)n2nc(C)n3c(cc4occc43)c2=O)CC1 (configuration not stated)
CCN(CC)CCNC(=O)c1cn(CC)c2ccc(S(=O)(=O)N(C)C3CCCCC3)cc2c1=O
Cn1c(C(=O)N2CCC(C(=O)NCCc3ccccc3)CC2)cc2sccc21
CCC(C(=O)NC1CCCCC1)n1c(SCc2cccc(C)c2)nc2ccncc21 (configuration not stated)
CCN1C(=O)c2ccccc2S(=O)(=O)c2ccc(C(=O)NCc3ccc(OC)cc3)cc21
Cc1cc(=O)n(CC(=O)NC(C)c2ccccc2)c2c1c(C)nn2-c1cccc(F)c1 (configuration not stated)
CC(NC(=O)c1ccco1)c1nc(-c2ccccc2)no1 (configuration not stated)
NC(=O)CSc1nc2c(oc3ccccc32)c(=O)n1Cc1ccccc1
O=S(=O)(NCC(c1ccco1)N1CCN(c2ccccc2)CC1)c1ccccc1 (configuration not stated)
CCSc1ncc(Cl)c(C(=O)N(Cc2ccccc2)c2ccc(OC)cc2)n1
CCOc1cccc(NC(=O)c2sc3nc(-c4ccc(F)cc4)ccc3c2N)c1
CCOC(=O)C1CCN(C(c2ccc(OCC)cc2)c2c(O)cc(C)n(CCOC)c2=O)CC1 (configuration not stated)
Cc1ccc(-c2noc(-c3ccc(NCc4cccnc4)c([N+](=O)[O-])c3)n2)cc1

Activity change, negative = inhibition, inactive:
Cc1ccc(-n2ncc3c(N4CCC(Cc5ccccc5)CC4)ncnc32)cc1C 7.54%
Cc1cccc(N(C)C(=O)Cc2c(C(=O)O)[nH]c3ccccc23)c1 4.46%
Cc1ccc(OC(=O)CSc2nnc(-c3ccc4c(c3)OCO4)o2)cc1 -1.01%
Cc1ccc(NC(=O)C2CCC(CNS(=O)(=O)c3cccc4nsnc34)CC2)c(Cl)c1 (configuration not stated) 13.4%
Cc1ccc(C(=O)Nc2ccccc2)cc1S(=O)(=O)Nc1ccccc1 24.5%
Cc1ccc(C)c(-n2nnc(-c3nc(-c4ccccc4C)no3)c2C)c1 -3.89%
COC(=O)c1cc2occc2n1CC(=O)Nc1ccc(C)cc1Cl 2.29%
COc1ccc(CCNc2nc3cc(OC)c(OC)cc3c3nc(-c4ccccc4)nn23)cc1OC 8.72%
COC(=O)c1cc(NC(=O)c2sc3ccccc3c2Cl)cc(C(=O)OC)c1 0.94%
CCOc1ccc(-c2nc(CSCC(=O)NCc3ccc(C)cc3)c(C)o2)cc1 -7.71%
O=C(O)c1cccc(-n2cnc3cccnc32)c1 8.54%
O=C(NCC(c1cccnc1)N1CCN(Cc2ccccc2)CC1)C(=O)Nc1cccc(Cl)c1 (configuration not stated) 6.3%
CC1=C(C(=O)O)N2C(=O)[C@@H](NC(=O)[C@H](N)C3=CCC=CC3)[C@H]2SC1 15.6%
COc1cccc(NC(=O)c2cc3c(-c4ccc(Cl)cc4)nn(C)c3s2)c1 5.77%
Cc1coc2cc3oc(=O)c(CCC(=O)NCc4ccccc4Cl)c(C)c3cc12 2.06%
COCc1c(Br)c(C)nc2sc3c(=O)n(-c4cccc(Br)c4)nnc3c12 -0.579%
N#Cc1ccccc1CSc1nnc2ccc3ccccc3n12 6.98%
COc1cc(OC)cc(-c2cc3nc(C)c(CCC(=O)Nc4ccccc4OC)c(C)n3n2)c1 8.62%
CCc1ccccc1NC(=O)CSc1nnc(-c2ccccc2)c(-c2ccccc2)n1 -2.13%
O=C(CN(c1ccc(Cl)c(C(F)(F)F)c1)S(=O)(=O)c1ccccc1)Nc1cccnc1 6.54%
COCCNC(=O)Cn1c(=O)c2cccn2c2ccc(F)cc21 -4.46%
O=C(NCc1ccc2c(c1)OCO2)c1ccc2c(c1)N(Cc1ccccc1F)C(=O)c1ccccc1S2=O (configuration not stated) -10.2%
CCOC(=O)c1c(-c2ccccc2)oc2ccc(N(C(C)=O)S(=O)(=O)c3ccccc3)cc12 -9.07%
Cc1ccccc1C(=O)Nc1c(C(=O)Nc2cccc(F)c2)oc2ccccc12 31.8%
CCSc1oc(-c2cccs2)nc1S(=O)(=O)c1ccc(Br)cc1 -6.66%
CCc1nnc(NC(=O)c2nc(SC)ncc2Cl)s1 -13%
COc1ccccc1CNC(=O)c1cc2c(-c3ccc(Cl)cc3)nn(C)c2s1 -1.48%
CCn1ccc2c(OCC(=O)Nc3ccc(C(C)=O)cc3)cccc2c1=O -2.58%
COc1ccccc1CNC(=O)C1CCN(C(=O)c2sccc2-n2cccc2)CC1 2.88%
CN(C1CCCCC1)S(=O)(=O)c1ccc2c(c1)c(=O)c(C(=O)NCc1ccc(F)cc1)cn2C -0.347%
CCOc1ccc(Cn2nnc(C(=O)Nc3ccc(Cl)cc3)c2N)cc1 35.1%
CCCN(C(=O)c1c(C)oc2ncnc(N3CCOCC3)c12)c1ccc(Cl)c(Cl)c1 -16.3%
Cc1cccn2c3c(c(=O)nc12)C(c1ccc(F)cc1)CC(=O)N3 (configuration not stated) -2.82%
Cc1cc(C)cc(N2CC(c3nnc(NC(=O)c4ccco4)s3)CC2=O)c1 (configuration not stated) 13.6%
COc1cc(C(=O)Nc2ccc(-n3c(C)nc4ccccc4c3=O)cc2)cc(OC)c1OC 6.69%
O=C(c1ccccc1)N1CCCC(c2nc3c(nnn3Cc3ccc(F)cc3F)c(=O)[nH]2)C1 (configuration not stated) 3.98%
Cc1nc2cccnc2n1C1CCN(C(=O)Nc2ccccc2)CC1 -0.177%
O=C(COCc1cc(-c2cccs2)on1)N1CCN(c2ccc(F)cc2)CC1 7.74%
O=c1c(=O)n(-c2ccccc2)ccn1Cc1c(F)cccc1Cl 6.56%
COc1cc(CNCCSc2nnnn2C)ccc1OCc1ccc(C)cc1 5.06%
O=C(NCc1cccc(F)c1)c1ccc(CN2CC(=O)N3CCCCC3C2=O)cc1 (configuration not stated) 12.2%
COc1ccc(CNS(=O)(=O)c2cc(Br)cc3c2N(C(C)=O)C(C)C3)cc1 (configuration not stated) -22.8%
CCCCn1c(=NC(=O)c2c(-c3c(F)cccc3Cl)noc2C)c(C(=O)OCC)cc2c(=O)n3ccccc3nc21 -1.47%
O=c1c2oc3ccccc3c2n(Cc2ccc(F)cc2)c(=O)n1Cc1ccco1 -1.42%
Cc1ccc(OC(C)C(=O)N2CCN(CCc3ccncc3)CC2)cc1C (configuration not stated) 0.692%
CCOC(=O)c1cccc(NS(=O)(=O)c2ccc3[nH]c4c(c3c2)CCCC4)c1 0.906%
